The results in this text go back to patent US6800434B2, “Peptides as NS3-serine protease inhibitors of hepatitis C virus” (priority 2000, dated 2004).

Structures are written as SMILES. pKi: −log10 of the molar value. Starred links: 1 amine or outer side, 2 acyl side, 3 side chain; linkers in the order of their positions; H or OH if unused. Non-standard residues stand in square brackets, D forms with d. Residues, ends and D or L forms follow the SMILES beside them. *: point of attachment. X2 = COc1ccc(C[C@@H]2C[C@@H](C(=O)[*:2])N([*:1])C2)cc1; Pro(trans-4-Ph) = O=C(O)[C@@H]1C[C@@H](c2ccccc2)CN1; N(2-Aminoethyl)Gly = O=C(CN(CCN[*:3])[*:1])[*:2]; Nleψ(COCO) = CCCC[C@H](N[*:1])C(=O)C(=O)[*:2]; Benzoyl(3-OPh) = O=C(c1cccc(Oc2ccccc2)c1)*; X15 = O=C(NCCN(CC(=O)[*:2])[*:1])c1ccccc1; X1 = CCC[C@H](N[*:1])C(=O)C(=O)[*:2]; X3 = CCCC(N[*:1])C(=O)C(=O)[*:2]; Chg = N[C@H](C(=O)O)C1CCCCC1; Aze = O=C(O)[C@@H]1CCN1; OtBu = CC(C)(C)O*; NHAllyl = C=CCN*; βAla = NCCC(=O)O; OAll = C=CCO*

The target in the assay is Recombinant heterodimeric HCV NS3/NS4A protease (strain 1a) (Hepatitis C virus genotype 1a, UniProt P27958). Nature of the assay: biochemical. To be noted: Ki* Range.
For the molecule `CCC[C@H](NC(=O)[C@@H]1C[C@@H](c2ccccc2)CN1C(=O)[C@@H](NC(=O)[C@@H](NC(=O)[C@H](CCC(=O)OC(C)(C)C)NC(=O)[C@H](CCC(=O)OC(C)(C)C)NC(C)=O)C(C)C)C1CCCCC1)C(=O)C(=O)NCC(=O)O` [Compound 84] (Ac-E(OtBu)E(OtBu)V[Chg][Pro(trans-4-Ph)][X1]G-OH), the pKi (commonly the negative decadic logarithm of the Ki, by convention in mol/L) is 7.00 to 9.00.

On to `CCC[C@H](NC(=O)[C@@H]1CCCN1C(=O)[C@@H](NC(=O)[C@@H](NC(=O)[C@H](CCC(=O)O)NC(=O)[C@H](CCC(=O)O)NC(C)=O)C(C)C)C(C)C)C(=O)C(=O)NCCC(=O)OCC` [Compound 27] (Ac-EEVVP[X1][βAla]-OEt), for which the pKi is 7.00 to 9.00.

As for `C=CCNC(=O)CNC(=O)C(=O)[C@H](CCC)NC(=O)[C@@H]1CCCN1C(=O)[C@@H](NC(=O)[C@@H](NC(=O)[C@H](CCC(=O)O)NC(=O)[C@H](CCC(=O)O)NC(C)=O)C(C)C)C(C)C` [Ac-EEVVP-nV-(CO)-G-allylAm] (Ac-EEVVP[X1]G-NHAllyl), the pKi was 6.00 to 7.00.

As to `CCC[C@H](NC(=O)[C@@H]1CCCN1C(=O)[C@@H](NC(=O)[C@@H](NC(=O)[C@H](CCC(=O)O)NC(=O)[C@H](CCC(=O)O)NC(C)=O)C(C)C)C(C)C)C(=O)C(=O)NCC(N)=O` [Ac-EEVVP-nV-(CO)-G-Am] (Ac-EEVVP[X1]G-NH2), the pKi was 5.00 to 6.00.

In the case of `CCC[C@H](NC(=O)[C@@H]1CCCN1C(=O)[C@@H](NC(=O)[C@@H](NC(=O)[C@@H](CCC(=O)O)NC(=O)[C@H](CCC(=O)O)NC(C)=O)C(C)C)C(C)C)C(=O)C(=O)NCC(=O)O` [Ac-EdEVVP-nV-(CO)-G-OH] (Ac-E[dE]VVP[X1]G-OH), the negative logarithm of the Ki (pKi) was 7.00 to 9.00.

With `CCC[C@H](NC(=O)[C@@H]1C[C@@H](Cc2ccc(OC)cc2)CN1C(=O)[C@@H](NC(=O)[C@@H](NC(=O)[C@H](CCC(=O)O)NC(=O)[C@H](CCC(=O)O)NC(C)=O)C(C)C)C(C)C)C(=O)C(=O)NCC(=O)O` [Ac-EEVV-P(4t-Bn(4-OMe))-nV-(CO)-G-OH] (Ac-EEVV[X2][X1]G-OH), the pKi was 7.00 to 9.00.

As to `CCC[C@H](NC(=O)[C@@H]1CCCN1C(=O)[C@H](Cc1ccccc1)NC(=O)[C@@H](NC(=O)[C@H](CCC(=O)O)NC(=O)[C@H](CCC(=O)O)NC(C)=O)C(C)C)C(=O)C(=O)NCC(=O)O` [Ac-EEVFP-nV-(CO)-G-OH] (Ac-EEVFP[X1]G-OH), the negative-log Ki (pKi) was 6.00 to 7.00.

Take `C=CCNC(=O)C(=O)C(CCC)NC(=O)[C@@H]1CCN1C(=O)[C@@H](NC(=O)[C@@H](NC(=O)[C@H](CCC(=O)O)NC(=O)[C@H](CCC(=O)O)NC(C)=O)C(C)C)C(C)C` (stereo partly drawn) [Compound 33] (Ac-EEVV[Aze][X3]-NHAllyl): the pKi is 6.00 to 7.00.

For the molecule `C=CCNC(=O)CNC(=O)C(=O)[C@H](CCC)NC(=O)[C@@H]1CCCN1C(=O)[C@@H](NC(=O)[C@@H](NC(=O)[C@H](CCC(=O)OC(C)(C)C)NC(=O)[C@H](CCC(=O)OC(C)(C)C)NC(C)=O)C(C)C)C(C)C` [Compound 7] (Ac-E(OtBu)E(OtBu)VVP[X1]G-NHAllyl), the negative-log Ki (pKi) is 5.00 to 6.00.

In the case of `CCC[C@H](NC(=O)CN(CCCCC(N)C(=O)O)C(=O)[C@@H](NC(=O)[C@@H](NC(=O)[C@H](CCC(=O)O)NC(=O)[C@H](CCC(=O)O)NC(C)=O)C(C)C)C(C)C)C(=O)C(=O)NCC(=O)O` (stereo partly drawn) [Ac-EEVV-G(N-Pe(5-NH2,5-CO2H))-nV-(CO)-G-OH], the pKi is 7.00 to 9.00.

Regarding `CCC[C@H](NC(=O)CN(CCNC(=O)c1ccccc1)C(=O)[C@@H](NC(=O)[C@@H](NC(=O)[C@H](CCC(=O)O)NC(=O)[C@H](CCC(=O)O)NC(C)=O)C(C)C)C(C)C)C(=O)C(=O)NCC(=O)O` [Ac-EEVV-G(N-Et(NHBz))-nV-(CO)-G-OH, Ac-Glu-Glu-Val-Val-Gly(N-Et(NHBz))-nVal(CO)-Gly-OH] (Ac-EEVV[X15][X1]G-OH), the pKi is 6.00 to 7.00.

For the molecule `C=CCOC(=O)CNC(=O)C(=O)[C@H](CCCC)NC(=O)[C@@H]1CCCN1C(=O)[C@@H](NC(=O)[C@@H](NC(=O)[C@H](CCC(=O)O)NC(=O)[C@H](CCC(=O)O)NC(C)=O)C(C)C)C(C)C` [Ac-EEVVP-nL-(CO)-G-Oallyl] (Ac-EEVVP[Nleψ(COCO)]G-OAll), the pKi is 7.00 to 9.00.

With `C=CCNC(=O)C(=O)C(CCC)NC(=O)[C@@H]1CCCN1C(=O)[C@@H](NC(=O)[C@@H](NC(=O)[C@H](CCC(=O)OC(C)(C)C)NC(=O)[C@H](CCC(=O)OC(C)(C)C)NC(C)=O)C(C)C)C(C)C` (stereo partly drawn) [Compound 5] (Ac-E(OtBu)E(OtBu)VVP[X3]-NHAllyl), the negative logarithm of the Ki (pKi) is 6.00 to 7.00.

On to `CCC[C@H](NC(=O)[C@@H]1CCCN1C(=O)[C@@H](NC(=O)[C@@H](NC(=O)[C@H](CCC(=O)O)NC(=O)[C@H](CCC(=O)O)NC(C)=O)C(C)C)C(C)C)C(=O)C(=O)N[C@@H](CO)C(=O)OC` [Compound 29] (Ac-EEVVP[X1]S-OMe), for which the negative-log Ki (pKi) was 5.00 to 6.00.

Consider `CCC[C@H](NC(=O)CN(CCNC(=O)c1cccc(Oc2ccccc2)c1)C(=O)[C@@H](NC(=O)[C@@H](NC(=O)[C@H](CCC(=O)O)NC(=O)[C@H](CCC(=O)O)NC(C)=O)C(C)C)C(C)C)C(=O)C(=O)NCC(=O)O` [Ac-EEVV-G(N-Et(NHBzl(3-OPh)))-nV-(CO)-G-OH] (Ac-EEVV[N(2-Aminoethyl)Gly](Benzoyl(3-OPh))[X1]G-OH), for which the pKi is 7.00 to 9.00.
